# According to the supplement of paper PMC8728848:
# The list shows a part of the results.
# B1: DrGRIFIN (Danio rerio), Q6DGJ1 (protein)
# chain: MTLRFEASCPDGLCPGWSVILKGETPPEASKFEINFLCDRDDRVAFHFNPRFTESDIICNSYMANRWGQEERCNHFPLGVEEPFQIEIYSDNDHFHVYIDKAKVMQYKHRVEDLKTITKLQVVNDVKISSLEITKKLFY
# What was measured:
# Test in all cases: glycan array binding signal (z-score within array); higher = stronger binding
# Settings in all cases: glycan notation: IUPAC condensed, linker removed
# Gal(b1-4)Glc = molecular target: Gal(b1-4)Glc
# How it was run: (§1)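 From the Consortium for Functional Glycomics database, 3228 arrays were curated, keeping only those whose protein sequence was available. Binding is given as a within-array Z-score averaged across arrays sharing a protein sequence and across linkers. Negative Z-scores can be read as non-binding.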
# Gal(b1-4)Glc6S = molecular target: Gal(b1-4)Glc6S
# How it was run: as §1
# Gal(b1-4)GlcNAc = molecular target: Gal(b1-4)GlcNAc
# How it was run: as §1
# [1] = molecular target: Gal(b1-4)GlcNAc(a1-6)Gal(b1-4)GlcNAc
# How it was run: as §1
# Gal(b1-4)GlcNAc(b1-2)Man = molecular target: Gal(b1-4)GlcNAc(b1-2)Man
# How it was run: as §1
# [2] = molecular target: Gal(b1-4)GlcNAc(b1-2)Man(a1-3)Man(b1-4)GlcNAc(b1-4)GlcNAc
# How it was run: as §1
# [3] = molecular target: Gal(b1-4)GlcNAc(b1-2)Man(a1-3)[Gal(b1-4)GlcNAc(b1-2)Man(a1-6)]Man(b1-4)GlcNAc(b1-4)GlcNAc
# How it was run: as §1
# [4] = molecular target: Gal(b1-4)GlcNAc(b1-2)Man(a1-3)[Gal(b1-4)GlcNAc(b1-2)Man(a1-6)]Man(b1-4)GlcNAc(b1-4)[Fuc(a1-6)]GlcNAc
# How it was run: as §1
# [5] = molecular target: Gal(b1-4)GlcNAc(b1-2)Man(a1-3)[Gal(b1-4)GlcNAc(b1-2)Man(a1-6)][Gal(b1-4)GlcNAc(b1-4)]Man(b1-4)GlcNAc(b1-4)[Fuc(a1-6)]GlcNAc
# How it was run: as §1
# [6] = molecular target: Gal(b1-4)GlcNAc(b1-2)Man(a1-3)[Gal(b1-4)GlcNAc(b1-2)Man(a1-6)][GlcNAc(b1-4)]Man(b1-4)GlcNAc(b1-4)[Fuc(a1-6)]GlcNAc
# How it was run: as §1
# [7] = molecular target: Gal(b1-4)GlcNAc(b1-2)Man(a1-3)[GlcNAc(b1-2)Man(a1-6)]Man(b1-4)GlcNAc(b1-4)GlcNAc
# How it was run: as §1
# [8] = molecular target: Gal(b1-4)GlcNAc(b1-2)Man(a1-3)[GlcNAc(b1-4)][Gal(b1-4)GlcNAc(b1-2)Man(a1-6)]Man(b1-4)GlcNAc(b1-4)GlcNAc
# How it was run: as §1
# [9] = molecular target: Gal(b1-4)GlcNAc(b1-2)Man(a1-3)[Man(a1-6)]Man(b1-4)GlcNAc(b1-4)GlcNAc
# How it was run: as §1
# [10] = molecular target: Gal(b1-4)GlcNAc(b1-2)Man(a1-6)Man(b1-4)GlcNAc(b1-4)GlcNAc
# How it was run: as §1
# [11] = molecular target: Gal(b1-4)GlcNAc(b1-2)Man(a1-6)[GlcNAc(b1-2)Man(a1-3)]Man(b1-4)GlcNAc(b1-4)GlcNAc
# How it was run: as §1
# [12] = molecular target: Gal(b1-4)GlcNAc(b1-2)Man(a1-6)[Man(a1-3)]Man(b1-4)GlcNAc(b1-4)GlcNAc
# How it was run: as §1
# [13] = molecular target: Gal(b1-4)GlcNAc(b1-2)[Gal(b1-4)GlcNAc(b1-4)]Man(a1-3)[Gal(b1-4)GlcNAc(b1-2)Man(a1-6)]Man(b1-4)GlcNAc(b1-4)GlcNAc
# How it was run: as §1
# [14] = molecular target: Gal(b1-4)GlcNAc(b1-2)[Gal(b1-4)GlcNAc(b1-4)]Man(a1-3)[Gal(b1-4)GlcNAc(b1-2)[Gal(b1-4)GlcNAc(b1-6)]Man(a1-6)]Man(b1-4)GlcNAc(b1-4)GlcNAc
# How it was run: as §1
# [15] = molecular target: Gal(b1-4)GlcNAc(b1-2)[Gal(b1-4)GlcNAc(b1-4)]Man(a1-3)[GlcNAc(b1-4)][Gal(b1-4)GlcNAc(b1-2)Man(a1-6)]Man(b1-4)GlcNAc(b1-4)GlcNAc
# How it was run: as §1
# [16] = molecular target: Gal(b1-4)GlcNAc(b1-2)[Gal(b1-4)GlcNAc(b1-4)]Man(a1-3)[GlcNAc(b1-4)][Gal(b1-4)GlcNAc(b1-2)[Gal(b1-4)GlcNAc(b1-6)]Man(a1-6)]Man(b1-4)GlcNAc(b1-4)GlcNAc
# How it was run: as §1
# [17] = molecular target: Gal(b1-4)GlcNAc(b1-2)[Gal(b1-4)GlcNAc(b1-6)]Man(a1-6)[Gal(b1-4)GlcNAc(b1-2)Man(a1-3)]Man(b1-4)GlcNAc(b1-4)GlcNAc
# How it was run: as §1
# [18] = molecular target: Gal(b1-4)GlcNAc(b1-2)[Gal(b1-4)GlcNAc(b1-6)]Man(a1-6)[Gal(b1-4)GlcNAc(b1-2)Man(a1-3)]Man(b1-4)GlcNAc(b1-4)[Fuc(a1-6)]GlcNAc
# How it was run: as §1
binder,measurement,setting,value
B1,glycan array binding signal (z-score),Gal(b1-4)Glc,-0.191
same,glycan array binding signal (z-score),Gal(b1-4)Glc6S,-0.201
same,glycan array binding signal (z-score),Gal(b1-4)GlcNAc,-0.203
same,glycan array binding signal (z-score),[1],-0.172
same,glycan array binding signal (z-score),Gal(b1-4)GlcNAc(b1-2)Man,-0.136
same,glycan array binding signal (z-score),[2],-0.202
same,glycan array binding signal (z-score),[3],-0.182
same,glycan array binding signal (z-score),[4],-0.164
same,glycan array binding signal (z-score),[5],-0.181
same,glycan array binding signal (z-score),[6],-0.15
same,glycan array binding signal (z-score),[7],-0.165
same,glycan array binding signal (z-score),[8],-0.164
same,glycan array binding signal (z-score),[9],-0.169
same,glycan array binding signal (z-score),[10],-0.171
same,glycan array binding signal (z-score),[11],-0.071
same,glycan array binding signal (z-score),[12],-0.162
same,glycan array binding signal (z-score),[13],-0.192
same,glycan array binding signal (z-score),[14],-0.137
same,glycan array binding signal (z-score),[15],-0.189
same,glycan array binding signal (z-score),[16],-0.192
same,glycan array binding signal (z-score),[17],-0.175
same,glycan array binding signal (z-score),[18],-0.168
